Measured values published in PubChem BioAssay AID624417 (National Center for Advancing Translational Sciences (NCATS), 2012).
“And” between values parts separate entries of the source, which are not always exact repeats. Equal values may be shown once. Among all 410,000 compounds or so, about 6,400 (1.6%) were called active. The inconclusive results got no clear call from the source; some entries with a clear call stand among them for comparison. The call rests on the fitted dose curve; in most records, active means well fitted inhibition curve with a large enough effect; inconclusive means small, poorly fitted or top-dose-only effect; inactive means no such curve, though single readings can be large or run the other way. Potencies beside an inconclusive call are fits to weak or partial responses and may not hold up.

Target: Glucagon-like peptide 1 receptor (Homo sapiens) (UniProt P43220)
Sequence of UniProt P43220 (P43220 whole entry, looked up): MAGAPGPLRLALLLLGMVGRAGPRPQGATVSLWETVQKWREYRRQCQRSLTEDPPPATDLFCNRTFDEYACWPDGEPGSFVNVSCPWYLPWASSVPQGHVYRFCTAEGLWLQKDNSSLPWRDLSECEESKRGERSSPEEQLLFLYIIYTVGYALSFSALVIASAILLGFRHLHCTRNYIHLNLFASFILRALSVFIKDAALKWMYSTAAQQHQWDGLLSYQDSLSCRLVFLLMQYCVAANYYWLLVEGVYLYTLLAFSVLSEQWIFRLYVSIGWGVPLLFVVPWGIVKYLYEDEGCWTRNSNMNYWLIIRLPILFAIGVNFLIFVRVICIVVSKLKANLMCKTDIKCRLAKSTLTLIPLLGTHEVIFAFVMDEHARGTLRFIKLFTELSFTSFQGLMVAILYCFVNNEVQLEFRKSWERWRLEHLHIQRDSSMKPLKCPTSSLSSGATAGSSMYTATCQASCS
Assay: qHTS of GLP-1 Receptor Inverse Agonists (Inhibition Mode); further: nearly all actives have a fitted effect of over 55% in size
Settings: HEK293 GLP-1R CRE-luciferase, luminescence, 24 h, GLP-1R form is constitutively active; activity change, negative = inhibition: at 38.3 µM (top of the series) unless noted
Method in brief: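 Inverse agonism was detected as reduced cAMP-driven luciferase luminescence after 24 h compound treatment. The cells were HEK293 clones expressing constitutively active human GLP-1R with the reporter. Reporter-only and GPR119 cell lines served as counterscreen controls.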
On the % scale 0 is the no-effect control and ±100 the full control effect; potency means the concentration at half of the fitted maximal effect; tags describe the fitted curve by direction and shape.

Row | SMILES | Potency | activity change, negative = inhibition
1 | Cc1cccc(-c2noc(-c3ccccc3C(=O)NCc3ccco3)n2)c1 | inconclusive: 11.2 µM [inhibitor, single point] | 
2 | COc1ccc(CN(CCC#N)C(=S)NC(=O)c2ccccc2)cc1 | inconclusive: 6.31 µM [inhibitor, full curve, poor fit] | 
3 | COc1ccc(OC)c(C(c2nnnn2Cc2ccccc2)N2CCN(C3CCCCC3)CC2)c1 (centres undefined) | inconclusive: 10 µM [inhibitor, partial curve] | 
4 | O=C1N(Cc2cccnc2)C[C@@H]2C[C@@H](c3cccc(OC4CCCC4)c3)N3CCC[C@@]123 |  | inactive: 2.63%
5 | COc1ccc(C)cc1NC(=O)c1ccc(S(=O)(=O)N2CCCCC2)cc1 | inconclusive: 28.2 µM [inhibitor, single point] | 
6 | CO/N=C/c1cc([N+](=O)[O-])ccc1Sc1ccc(C)cc1 | inconclusive: 22.4 µM [inhibitor, single point] | 
7 | Cc1ccc(S(=O)(=O)N2CCCc3cc(NC(=O)c4c(F)cccc4F)ccc32)cc1 | inconclusive: 10 µM [inhibitor, single point] and inconclusive: 7.08 µM [inhibitor, partial curve, poor fit] | 
8 | Cc1onc(-c2ccccc2)c1CNC(=O)Nc1ccc(C(F)(F)F)cc1 | inconclusive: 7.94 µM [inhibitor, partial curve] | 
9 | Cc1ccc(O)c(-c2[nH]ncc2C(=O)c2ccc(Cl)cc2)c1 | inconclusive: 31.6 µM [inhibitor, partial curve, poor fit] | 
10 | O=C(Nc1cc(Cl)cc(Cl)c1)C1CCCC1 | inconclusive: 10 µM [inhibitor, partial curve, poor fit] | 
11 | CCNC(=O)NC(=O)COC(=O)c1cccc(S(=O)(=O)N2CC3(C)CC2CC(C)(C)C3)c1 (centres undefined) | inconclusive: 22.4 µM [inhibitor, partial curve, poor fit] | 
12 | C/C(=N\NC(=O)c1cccc(Br)c1)c1ccccn1 | inconclusive: 0.891 µM [inhibitor, full curve, poor fit] | 
13 | O=C(CN1C2=NCCCN2c2ccccc21)c1ccc2c(c1)OCO2 | inconclusive: 12.6 µM [inhibitor, single point] | 
14 | CCOc1ccc(S(=O)(=O)N2CCN(Cc3ccc4c(c3)OCO4)CC2)cc1OCC | inconclusive: 31.6 µM [inhibitor, single point] | 
15 | Cc1ccc(CNC(=O)Cn2cc(C(=O)c3ccc(Cl)cc3)c(=O)c3ccc(C)nc32)cc1 |  | inactive: -0.19%
16 | CCCCCCCC(=O)Nc1ccc(C(=O)N/N=C/c2cccc([N+](=O)[O-])c2)cc1 |  | inactive: -26.1%
17 | CCN(CC)C(=O)C1=C(C)N(Cc2ccc(C(C)(C)C)cc2)C(=O)C(CC(=O)NCc2cccc3ccccc23)C1 (centres undefined) | active: 11.2 µM | 
18 | COc1ccc(S(=O)(=O)N2CCCN(CC(=O)Nc3ccccc3F)CC2)cc1 | inconclusive: 11.2 µM [inhibitor, single point] | 
19 | Cc1nc2ncnn2c(C)c1Cc1ccccc1Cl |  | inactive: 5.75%
20 | CCCCCCSc1nc(O)c(C2OC(=O)c3c2ccc(OC)c3OC)c(=O)n1CC (centres undefined) | inconclusive: 12.6 µM [inhibitor, single point] | 
21 | COc1cccc(CN(C)C(=O)COc2ccc(C(=O)c3ccc(Cl)cc3)cc2)c1OC | inconclusive: 11.2 µM [inhibitor, single point] | 
22 | OC(CN1CCN(C(c2ccccc2)c2ccccc2)CC1)c1ccc(Br)cc1 (centres undefined) |  | inactive: -24.7%

Row | SMILES | Potency | activity change, negative = inhibition
23 | CCOc1cc(C(=O)Nc2ccc(F)cc2)cc(Br)c1OC | inconclusive: 3.16 µM [inhibitor, full curve] | 
24 | C[C@@H]1[C@@H](Sc2ccccc2)CC(=O)O[C@@H]1c1ccc(-c2ccccc2)cc1 | inconclusive: 7.94 µM [inhibitor, partial curve, poor fit] | 
25 | CC(C)(O)CCc1c(-c2ccc(O)cc2O)oc2c3c(cc(O)c2c1=O)OC(C)(C)C=C3 | inconclusive: 10 µM [inhibitor, partial curve, poor fit] | 
26 | Cc1ccccc1CN(c1ccc(C(=O)N2CCc3ccccc3C2)cc1)S(C)(=O)=O | inconclusive: 1 µM [inhibitor, full curve, poor fit] | 
27 | CCOC(=O)Cc1csc(NC(=S)NC(=O)c2ccccc2C)n1 | inconclusive: 28.2 µM [inhibitor, single point] | 
28 | c1ccc(-c2ccc(-c3ccccc3)[nH]2)cc1 | inconclusive: 15.8 µM [inhibitor, single point] | 
29 | Cc1ccccc1CNC(=O)c1ccc2c(c1)N(Cc1ccccc1)CCS2 | inconclusive: 10 µM [inhibitor, partial curve, poor fit] | 
30 | CCN(CC)CCn1c(NCc2cc(OC)ccc2OC)nc2ccccc21 | inconclusive: 28.2 µM [inhibitor, single point] | 
31 | COc1cc(OC)c(NC(=S)NCc2ccccc2)cc1Cl | inconclusive: 10 µM [inhibitor, partial curve] | 
32 | C=CCNC(=S)N/N=C(\C)c1ccc(-n2ccnc2)cc1 | inconclusive: 11.2 µM [inhibitor, partial curve, poor fit] | 
33 | COc1cc(C(=O)O)c2c(c1C)OC(=O)c1c(C)cc(O)c(C=O)c1O2 |  | inactive: -1.21%
34 | O=C(Cc1ccc(F)cc1)Nc1ccccc1N1CCCC1 | inconclusive: 7.94 µM [inhibitor, partial curve, poor fit] | 
35 | CC(=O)NNc1nc(-c2ccccc2)cs1 |  | inactive: -8.72%
36 | O=C(CCCn1c(=S)[nH]c2cc3c(cc2c1=O)OCO3)N1CCc2ccccc2C1 |  | inactive: -9.52%
37 | CC(=O)Nc1ccc(NC(=O)c2cccc(S(=O)(=O)N3CCCCCC3)c2)cc1 |  | inactive: 6.99%
38 | CCOC(=O)C(C)/C(C)=N\Nc1ccc([N+](=O)[O-])cc1[N+](=O)[O-] (centres undefined) |  | inactive: 15.7%
39 | CC1=C(C(=O)Nc2ccccc2F)C(c2ccsc2)C2=C(CC(C)(C)CC2=O)N1 (centres undefined) | inconclusive: 2.82 µM [inhibitor, partial curve, poor fit] | 
40 | CCSc1nc2c(c(=O)n1Cc1ccccc1)SC(C)C2 (centres undefined) | inconclusive: 10 µM [inhibitor, partial curve] | 
41 | CCOC(=O)c1nnsc1Nc1ccc(C)c(C)c1 |  | inactive: -11.9%
42 | Cc1ccc(NC(CNS(=O)(=O)c2ccc(Cl)cc2)c2ccccc2)cc1 (centres undefined) | inconclusive: 5.01 µM [inhibitor, full curve, poor fit] | 
43 | CCC(=O)N1c2ccc(S(=O)(=O)N3CCN(c4ccccc4Cl)CC3)cc2CC1C (centres undefined) | inconclusive: 28.2 µM [inhibitor, single point] | 
44 | NC(c1csc(NC(=O)Nc2ccccc2)n1)C1CCCCC1 (centres undefined) | inconclusive: 28.2 µM [inhibitor, single point] | 

Row | SMILES | Potency | activity change, negative = inhibition
45 | C=CCN(Cc1cc(OC)ccc1OC)C(=O)c1cc2ccc(OC)cc2[nH]1 | active: 11.2 µM | 
46 | C=CCC[C@@H](Cc1ccc(F)cc1)C(=O)OC[C@H](C)NC(=O)[C@@H](CC=C)CC(=O)N(CCO)Cc1ccccc1 | inconclusive: 12.6 µM [inhibitor, single point] | 
47 | CCOC(=O)C1CCCN(S(=O)(=O)c2cc(-c3cc(C)no3)ccc2C)C1 (centres undefined) |  | inactive: -15.5%
48 | COC(=O)[C@@]12CCCN1[C@H](c1ccc(-c3cccc(Cl)c3)cc1)[C@H]1C(=O)N(C)C(=O)[C@H]12 | inconclusive: 3.16 µM [inhibitor, partial curve, poor fit] | 
49 | CCCCCCC(=O)Nc1nc(C)c(-c2csc(Nc3cc(OC)ccc3OC)n2)s1 |  | inactive: 54%
50 | CC1(C)Cc2ccccc2-c2nnc(-c3cccnc3)n21 | inconclusive: 10 µM [inhibitor, partial curve, poor fit] | 
51 | Nc1ccccc1C(=O)NNc1c2ccccc2nc2ccccc12 | inconclusive: 20 µM [inhibitor, single point] | 
52 | Cc1cc(C(=O)C[N+]2(C)CCOCC2)c(C)n1-c1ccc(Br)cc1 | inconclusive: 5.01 µM [inhibitor, full curve, poor fit] | 
53 | O=C(NC1CCCCC1)/C(=C/c1ccc(Cl)cc1)NC(=O)c1ccccc1 |  | inactive: 10.8%
54 | O=C(Oc1ccc2c(c1)OCO2)c1cc2c(s1)CCC2 | inconclusive: 28.2 µM [inhibitor, single point] | 
55 | COc1ccc(N(CC(=O)NC2CCCC2)C(=O)c2csnn2)cc1 | inconclusive: 0.501 µM [inhibitor, full curve, poor fit] | 
56 | Cc1ccccc1C(=O)OCc1cnc(Cl)s1 |  | inactive: -1.82%
57 | CN(C)c1ccc(-c2ccc([C@H]3[C@@H]4C=CCC[C@@]4(C)C(=O)N3Cc3ccccc3)c(F)c2)cc1 | inconclusive: 7.08 µM [inhibitor, partial curve, poor fit] | 
58 | Cc1ccc(/C=C/C(=O)Nc2ccc([N+](=O)[O-])cc2)o1 |  | inactive: 76.5%
59 | Cc1ccccc1/C=N/NC(=O)Cn1cnc([N+](=O)[O-])n1 |  | inactive: 17.1%
60 | O=C(Nc1ccccn1)C(c1ccccc1)c1ccccc1 | inconclusive: 11.2 µM [inhibitor, single point] | 
61 | COC(=O)C1=C(C)N(CCC2=CCCCC2)C(=O)C1 | inconclusive: 31.6 µM [inhibitor, single point] | 
62 | CCOC(=O)C1=CCN(S(=O)(=O)c2ccc(C)cc2)C1c1ccc(C)cc1 (centres undefined) | inconclusive: 28.2 µM [inhibitor, single point] | 
63 | CC(C)c1ccc(N(C(=O)c2cc3ccccc3oc2=O)C2C=CS(=O)(=O)C2)cc1 (centres undefined) | inconclusive: 31.6 µM [inhibitor, single point] | 
64 | CC(/C=N/NC(=O)c1cc(-c2cccs2)[nH]n1)=C\c1ccccc1 | inconclusive: 10 µM [inhibitor, partial curve, poor fit] | 
